ChEMBL document CHEMBL1201862, “PubChem BioAssay data set” (2004)
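Method: 48-hour compound exposure of cells in 96-well plates, five concentrations, linear interpolation of endpoints. Abbreviation: GI50, concentration required for 50% inhibition of growth.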 Activity calls are given as the source filed them. No stated cut-off is given here; in the data, active = GI50 up to about 1.1 µM and inactive = higher.

tested on: NCI-H322M; test: growth of human tumour cells (NCI), 48 h

Structure (SMILES)	GI50
CCc1oc2ccccc2c1C(=O)c1cc(Br)c(O)c(Br)c1 [BENZBROMARONE]	inactive: 22.6 µM
CCCCCCCCCCC(C(=O)O)C1(C(=O)O)CCC(=O)O1 (configuration not stated)	inactive: > 100 µM
O=C1/C(=C/c2cccc([N+](=O)[O-])c2)Sc2scc(-c3ccc([N+](=O)[O-])cc3)[n+]21	inactive: 27.3 µM
CN(C)c1ccc(/C=N/c2ccc(-c3nc4ccccc4o3)cc2)cc1	inactive: > 100 µM
CCOC(=O)c1ccc2c(=O)n3c(C(=O)OCC)ccc3c(=O)n12	inactive: > 100 µM
Oc1ccc(-c2nc(-c3ccc4ccccc4n3)c(-c3ccc(F)cc3)[nH]2)cc1	inactive: 15.4 µM
CC(CO)CCNc1ncnc2c1ncn2CCC(=O)O (configuration not stated)	inactive: > 100 µM
CC(=O)c1sc2c(c1OC(=O)c1cccs1)c(=O)n(-c1ccccc1)c(=S)n2-c1ccccc1	inactive: 20.7 µM
O=c1ss/c(=N\c2ccccc2)n1-c1ccccc1	inactive: > 100 µM
Cc1cc(Cl)nc(Nc2nc3ccccc3[nH]2)n1	inactive: > 100 µM
CCC(=O)Nc1ccc(NS(=O)(=O)c2ccc(Cl)cc2)cc1	inactive: > 100 µM
COc1ccc(/C=C2\C=Cc3ccccc32)cc1OC	inactive: > 100 µM
COC(=O)[C@@H](N1C(=O)c2ccccc2C1=O)C1(C)CC(Cl)=NO1 (some centres not stated)	inactive: 60 µM
COC(=O)c1c(O)ccc2c1c1c(n2C)C(=O)c2ccccc2C1=O	inactive: > 100 µM
O=C(/C=C/c1ccccc1Cl)c1ccc(Cl)c(Cl)c1	inactive: 41.8 µM
CCN(CC)c1nc(N(C)C)c2ccc(OC)cc2n1	inactive: 10.3 µM
c1ccc(/C(=N/Nc2ccccn2)c2cccnn2)cc1	inactive: 3.72 µM
Cc1cc(C)nc(NS(=O)(=O)c2ccc(NNc3c4ccccc4nc4c(C(=O)Nc5ccc(S(N)(=O)=O)cc5)cccc34)cc2)n1	inactive: 56.2 µM
O=C(O)CSc1ncccc1[N+](=O)[O-]	inactive: > 100 µM
Cc1ccc(/C=C/C(=O)CCN(C)C)cc1	inactive: 53.2 µM
O=C1C(c2c(O)[nH]c3ccccc23)=Nc2ccc(Br)cc21	inactive: 28.4 µM
Cc1ccccc1N(CCC#N)C1=NN(C(=O)CC(=O)Nc2ccc(Cl)cc2)C(c2ccccc2)C1 (configuration not stated)	inactive: > 100 µM
CC(C)CS(=O)(=O)/C(=C(\c1ccc(Br)cc1)S(=O)(=O)CC(C)C)c1ccc(Br)cc1	inactive: > 100 µM
COC(=O)/C=C/c1cc(O)c2c(c1)[C@H](C(=O)OC)[C@@H](c1ccc(O)c(O)c1)O2	inactive: 7.96 µM

Structure (SMILES)	GI50
O=C(/C=C/c1ccccc1)CCC1C(=O)NC(=S)NC1=O	inactive: > 100 µM
CS(=O)(=O)c1ccc(C(=O)O[C@@H]2C(=O)N3CC[C@H]4OC(O)[C@@H]2[C@H]43)cc1 (some centres not stated)	inactive: > 100 µM
CC1CCCC(C(O)CC2CC(=O)NC(=O)C2)C1O (configuration not stated)	inactive: > 100 µM
O=C(/C=C/c1ccccc1)CCN1CCN(CCC(=O)/C=C/c2ccccc2)CC1	inactive: 26 µM
CS(=O)(=O)NNS(=O)(=O)c1ccc(F)cc1	inactive: > 100 µM
[N-]=[N+]=Nc1c([N+](=O)[O-])c(=O)n(-c2ccccc2)c2ccccc12	inactive: 21.4 µM
C[C@@]12CC[C@H]3[C@@H]4CCC(=O)N[C@@]4(C)CC[C@@H]3[C@@]1(C)CC[C@H](OC(=O)Cc1ccc(N(CCCl)CCCl)cc1)C2	inactive: 18.6 µM
N#CC(NNC(=O)Cc1ccccc1)c1cccc(O)c1 (configuration not stated)	inactive: > 100 µM
CC(=O)N1C(OCc2ccccc2)CCN1c1ccccc1 (configuration not stated)	inactive: > 10 µM
C/C(C=O)=N\Nc1cc(C)c2ccccc2n1	inactive: 16.2 µM
CC(CCC(=O)O)C(=O)O (configuration not stated)	inactive: > 100 µM
CCOC(=O)c1csc(NC(=O)CN2CCN(C)CC2)n1	inactive: > 100 µM
CC1=CC[C@](C)(O)[C@@]2(C)CC[C@H]3C(=C(C)C)C(=O)C[C@]3(C)C[C@H]12	inactive: > 50 µM
C=C1C(=O)c2cc3c(cc2C(c2cc(OC)c(OC)c(OC)c2)[C@@H]1C(=O)O)OCO3 (some centres not stated)	inactive: 32.4 µM
Cc1ccccc1/C=N/C12CC3CC(CC(C3)C1)C2	inactive: > 100 µM
O=C1C=CC(=O)c2c1ccc1c3ccccc3n(CCCCCCCCCCCCn3c4ccccc4c4ccc5c(c43)C(=O)C=CC5=O)c21	inactive: > 100 µM
O=C(O)c1cc2cc(OCc3ccccc3)ccc2[nH]1	inactive: > 100 µM
COC(=O)C1C(C(=O)OC)C2(OC)c3ccccc3-c3ccccc3C12 (configuration not stated)	inactive: 54.1 µM
O=C(CCCCCCCCC(=O)N1C(=O)CC(=O)N(c2ccccc2)C1=S)N1C(=O)CC(=O)N(c2ccccc2)C1=S	inactive: > 100 µM
COC(=O)c1c2c(cc3c1CC1(C3)Cc3cc4c(c(C(=O)OC)c3C1)CCC4)CCC2	inactive: > 100 µM
O=C(CNS(=O)(=O)Cc1ccccc1)NNc1ccccc1	inactive: > 100 µM
C/C(=N\NC(=S)N1CCCCCC1)c1nccnc1C	active: 0.0124 µM
COC(=O)c1c(OC(C)=O)ccc2c1c1cc3ccccc3c(OC(C)=O)c1n2C	inactive: 27.1 µM
